The values that follow come from ChEMBL document CHEMBL4888484, “Replenishing the malaria drug discovery pipeline: Screening and hit evaluation of the MMV Hit Generation Library 1 (HGL1) against asexual blood stage Plasmodium falciparum ,using a nano luciferase reporter read-out” (2022).

The whole screen tested about 150,000 compounds, of which about 540 (0.36%) showed an effect of 50% or more. The list shows a part of the results.

The experiment has as its system Plasmodium falciparum. Put plainly: Primary screen in NF54 nanoGlo assay, in single point, at 2uM, 72h; a lower Z score goes with more inhibition. The format is functional, Erythrocyte. Particulars: timepoint 72 hour.
As to `CC(C)n1nccc1NS(=O)(=O)Cc1cccc(F)c1`, the “% Inhibition” value came to 30% and the Z score was -3.37.
On to `COc1ccc(OC)c(Cn2ccnc2C(C)C)c1`, for which the “% Inhibition” value was -15% and the Z score was found to be 2.53.
With `COc1cc(OC)c(N2C[C@@H](C(=O)Nc3ccc4nc(C)sc4c3)CC2=O)cc1Cl`, the “% Inhibition” value is given as 10% and the Z score was -1.69.
Turning to `C[C@H]1CC[C@@H](C(=O)NCCc2c[nH]c3cc(F)c(Cl)cc23)O1`, the “% Inhibition” value was -7% and the Z score is on record as 1.36.
For `COCC(=O)N1CCN([C@H]2CCN(CCc3ccccc3)C2=O)CC1` the same measures were -17% and 2.25.
As to `Cn1c(=O)c2c(ncn2CC(=O)N2CCN(c3ccccc3O)CC2)n(C)c1=O`, the “% Inhibition” value was -5% and the Z score is 0.75.
Take `N#Cc1ccc(CN(C2CC2)S(=O)(=O)c2cccnc2)cc1`: the “% Inhibition” value was -9% and the Z score stood at 1.26.
As to `COc1cc(-c2nc3c(cnn3Cc3ccc(C)o3)[nH]2)cc(Cl)c1O`, the “% Inhibition” value is reported as -3% and the Z score worked out at 0.43.
`CCCc1cnc(C)nc1-c1cccc(C(=O)N2CCNC(=O)[C@@H]2CCO)c1`: the “% Inhibition” value is recorded as -13% and the Z score is listed as 1.87.
As for `CCNC(=O)N1C2CCC(C2)C1C(=O)NC1CCCC1` (centres undefined), the “% Inhibition” value is recorded as -9% and the Z score is 1.2.
For `CN(Cc1nnc(C2CC2)n1C)C(=O)Cc1ccc2c(c1)CCCO2` the same measures were -21% and 2.73.
For `O=C(NC[C@H]1Cn2c(-c3ccc(F)cc3)cnc2CO1)c1ccc(Cl)cc1` the same measures were 31% and -3.52.
In the case of `CCOc1ccc(-c2nn(CC(=O)Nc3cccc(C)c3)c3c2cnc2ccccc23)cc1`, the “% Inhibition” value is listed as -14% and the Z score stood at 1.21.
`COc1cnc(NC(=O)[C@@H]2CCCc3ccccc32)s1`: the “% Inhibition” value is -5% and the Z score was 0.51.
As for `CCc1nc(NC(=O)N2CCCC(F)(F)CC2)sc1C(C)(C)C`, the “% Inhibition” value is recorded as 0% and the Z score is on record as -0.03.
Consider `CN(Cc1cnccn1)c1cc(C(F)(F)F)nc(-c2ccncc2)n1`, for which the “% Inhibition” value worked out at 7% and the Z score was -1.42.
On to `COc1ncccc1C(=O)N1CCN(Cc2cccc(C)n2)[C@@H](CCO)C1`, for which the “% Inhibition” value is -2% and the Z score came out at 0.34.
For `CC1CCC(OCC(=O)N2CCN(c3ccc(C(N)=O)cc3)CC2)CC1` (centres undefined), the “% Inhibition” value is recorded as -17% and the Z score is 3.61.
Regarding `CC(=O)c1cccc(-n2cnnc2Cn2nc(C)c(C)c2C)c1`, the “% Inhibition” value is 10% and the Z score is on record as -1.98.
With `Cc1nc2c(-c3ccc(F)cc3)cnn2c2c1CCC2`, the “% Inhibition” value is -8% and the Z score turned out to be 1.53.
Turning to `COc1ccc(-c2nccn2-c2ccc(-c3nncn3C)cc2)cc1C(=O)O`, the “% Inhibition” value was 13% and the Z score is reported as -1.75.
Take `CCc1nc2c(c(=O)n1CC(=O)NCCC(C)C)CN(Cc1ccccc1)CC2`: the “% Inhibition” value is on record as -16% and the Z score stood at 1.82.
Regarding `N#Cc1ccc(COCC2CCN(CC(=O)NC[C@H]3CCCO3)CC2)cc1`, the “% Inhibition” value is recorded as -5% and the Z score amounted to 0.54.
For `CCOC1CC(CCNC(=O)[C@@H]2CCCN2C(=O)c2ccccn2)C1` (some centres undefined), in that order: 4% and -0.56.
With `CCOc1ccccc1CCNC(=O)c1ccc([C@H](C)N2CCCCC2)o1`, the “% Inhibition” value is recorded as -2% and the Z score worked out at 0.42.
For the molecule `Oc1nc2ccccc2c(-c2ccccc2)c1-c1cc(-c2ccccc2)c2ccc(Cl)cc2n1`, the “% Inhibition” value amounted to 2% and the Z score is recorded as -0.27.
For `O=C(OCCc1cccnc1)c1ccc(N2CCCC2)nc1`, the “% Inhibition” value is -11% and the Z score is 1.26.
For `COCCN(Cc1cc(OC)cc(OC)c1)C[C@H](O)COCC(C)C` the same measures were -4% and 0.79.
On to `CCN(Cc1nc(-c2ccccn2)no1)Cc1ccc(Cl)s1`, for which the “% Inhibition” value is -15% and the Z score was 1.23.
For `Cc1ccc(NC(=O)Nc2cc(C)ccc2N2CCCN(Cc3cc(F)ccc3F)C2=O)cc1`, in that order: -8% and 0.82.
In the case of `Cn1cncc1CCNC(=O)Cc1cc(F)c(F)cc1F`, the “% Inhibition” value stood at 3% and the Z score was -0.31.
For `c1cn(-c2ccc(CN3CCN(c4nccs4)CC3)cc2)cn1` the same measures were -1% and 0.14.
As to `C[C@H](NC(=O)N(Cc1ccccc1F)C1CCC1)c1cnn(C)c1`, the “% Inhibition” value is listed as 36% and the Z score was -0.71.
Turning to `COc1ccc(CNC(=O)c2c(C)noc2-c2cccnc2)cc1`, the “% Inhibition” value was -5% and the Z score came out at 0.81.
For `CN(Cc1cscn1)Cc1cc(-c2cccs2)ccc1OCC(=O)N1CCN(c2cccc(C(F)(F)F)c2)CC1`, the “% Inhibition” value is on record as -7% and the Z score amounted to 0.92.
Turning to `CCOc1ccc(OCC)c(NS(=O)(=O)c2cc(-c3cnc(C)o3)ccc2OC)c1`, the “% Inhibition” value is listed as -6% and the Z score stood at 1.04.
Consider `CCCNC(=O)NC(=O)CNc1cc(NC(=O)CC)ccc1Cl`, for which the “% Inhibition” value is given as -9% and the Z score was found to be 1.26.
As to `c1ccc(CN2CC(c3nc(-c4ccsc4)no3)C2)cc1`, the “% Inhibition” value is -12% and the Z score turned out to be 1.33.
Turning to `COc1ccc(COCc2cccc(NCc3nccn3C)c2)cc1`, the “% Inhibition” value came to 27% and the Z score is given as -3.09.
For `O=C(CCS(=O)(=O)Cc1cccc(Cl)c1)NCc1ccccc1Cl`, in that order: -10% and 1.63.
`O=C1CCC(c2ccccc2)(c2ccccc2)CN1CC1(CO)CCOCC1`: the “% Inhibition” value is reported as -10% and the Z score is recorded as 1.13.
For `CC1CC(C)CN(c2oc(C3CC3c3ccccc3)nc2C#N)C1` (centres undefined), in that order: 2% and -0.31.

The % Inhibition is the change of the read-out against control, counted positive when it falls.
